Reference: PubChem BioAssay AID624296 (National Center for Advancing Translational Sciences (NCATS), 2012)
Hit rate of the full screen: of about 350,000 compounds, about 9,900 (2.8%) were called active. The shares of active, inactive and inconclusive entries below differ from those in the screen. Calls come from the whole dose curve; as a rule, active = well fitted activation curve with a large enough effect; inconclusive = small, poorly fitted or top-dose-only effect; inactive = no such curve, though single readings can be large or run the other way. Potencies of inconclusive entries are left out as doubtful fits.

experiment: A quantitative high throughput screen for small molecules that induce DNA re-replication in MCF 10a normal breast cells.; note: nearly all actives have a fitted effect of over 50% in size; for activity, positive = re-replication: % of control where 0% means no effect; details: MCF 10A DNA re-replication, Hoechst nuclear intensity, 48 h; activity, positive = re-replication: at 46.1 µM (top of the series)
Potency is the fitted concentration of half-maximal effect; tags give direction and shape of the fitted curve.

Row | Structure (SMILES) | activity, positive = re-replication | Potency
1 | CCCOc1ccc(C(=O)NNC(=S)NC(=O)c2ccco2)cc1 | inactive: 3.93% | –
2 | COc1ccccc1NC(=O)Nc1nc(CC(=O)N2CCN(c3ccccc3OC)CC2)cs1 | – | inconclusive [activator, single point]
3 | Cc1nn(-c2ccccc2)c(N)c1N=Nc1cccnc1 | inactive: -0.8% | –
4 | O=c1[nH]c2ccc(Cl)cc2c(-c2ccccc2)c1SC(=S)N1CCOCC1 | – | inconclusive [activator, single point]
5 | CCN(CC)CCn1c(=S)[nH]c2cc(Cl)ccc2c1=O | – | inconclusive [activator, partial curve, poor fit]
6 | CCC(=O)Nc1ccc2nc(C)n(CC(=O)Nc3ccccc3)c(=O)c2c1 | – | inconclusive [activator, single point]
7 | COCCn1c(C)cc(C(=O)COC(=O)/C=C/c2ccc(OC)cc2OC)c1C | inactive: -9.72% | –
8 | O=C(N/N=C/c1cccc(O)c1)c1ccc(COc2ccccc2Br)cc1 | – | active: 23.1 µM
9 | O=C(/C=C\Nc1ccccn1)c1ccc(Cl)cc1 | inactive: -17.5% | –
10 | COC(=O)CCCn1c(C)cc(C(=O)CCl)c1C | – | inconclusive [activator, single point]
11 | COc1ccc(N2CCN(C(=O)C3CCCN(c4ncnc5c4nc4n5CCCCC4)C3)CC2)cc1 (centres undefined) | inactive: 2.17% | –
12 | CCN1C=C(C(C)=O)C(=O)CC1 | inactive: -24.1% | –
13 | CC(=O)c1cc(CC=C(C)C)c(O)c(CC=C(C)C)c1O | – | inconclusive [activator, single point]
14 | Cc1onc(-c2ccccc2Cl)c1C(=O)Nc1ccc(S(=O)(=O)NCC2CCCO2)cc1 (centres undefined) | – | inconclusive [activator, single point]
15 | CCN=C1S/C(=C\c2cn(CC(=O)NCc3ccco3)c3ccccc23)C(=O)N1CC | – | inconclusive [activator, single point]
16 | CN(Cc1ccncn1)C(=O)CC1C(=O)NCCN1Cc1cccc(Oc2ccccc2)c1 (centres undefined) | – | inconclusive [activator, partial curve, poor fit]
17 | O=C(CSc1nnc(Cc2ccccc2)o1)Nc1cccc(F)c1 | – | inconclusive [activator, partial curve, poor fit]
18 | O=C(c1ccc(COc2ccc(Br)cc2)o1)N1N=C(C(F)F)CC1(O)C(F)F (centres undefined) | – | inconclusive [activator, single point]
19 | Cc1ccc(Nc2nc3ccccc3nc2-n2nc(C)cc2C)cc1 | – | inconclusive [activator, single point]
20 | NC(=O)C1(Nc2ccc([N+](=O)[O-])cc2)CCCC1 | inactive: -29.5% | –
21 | CCNC(=S)N1CCN(S(=O)(=O)c2cccc(C(F)(F)F)c2)CC1 | inactive: 4.38% | –
22 | Cc1ccc(NC(=S)NC(NC(=O)C(C)(C)C)C(Cl)(Cl)Cl)c(C)c1 (centres undefined) | inactive: 2.98% | –
23 | Cc1ccc(OCCn2cc(/C=N/NC(=O)c3ccncc3)c3ccccc32)cc1 | – | inconclusive [activator, partial curve, poor fit]

Row | Structure (SMILES) | activity, positive = re-replication | Potency
24 | Cc1ccc(NC(=S)N/N=C/c2c(C)nn(-c3ccccc3)c2N2CCCC2)cc1 | – | inconclusive [activator, single point]
25 | Cc1ccc(CN2CCN(C(=O)c3cccc4ccccc34)CC2)cc1 | inactive: 2.73% | –
26 | COc1ccc2nc(Nc3sc4c(c3C(N)=O)CCCC4)sc2c1 | – | inconclusive [activator, single point]
27 | COc1ccccc1C(=O)NC(=S)Nc1ccc(N2CCN(C(=O)c3ccco3)CC2)cc1 | inactive: 9.28% | –
28 | CCC1CN2CCc3cc(OC)c(OC)cc3C2CC1CC1c2cc(OC)c(OC)cc2CCN1C(=O)C(Cc1c[nH]c2ccccc12)NC(=O)OC(C)(C)C (centres undefined) | – | inconclusive [activator, single point]
29 | COc1ccc(/C=C2/N=C(SCC(=O)Nc3cc(C)on3)N(c3ccccc3)C2=O)cc1 | – | active: 20.6 µM
30 | Cc1ccc(Nc2cc(C)nn2-c2nc(C)cc(=O)[nH]2)cc1 | – | inconclusive [activator, full curve, poor fit]
31 | CCOc1ccc(NC(=O)C/C(C)=N/NC(=O)c2cnccn2)cc1 | inconclusive: -39.2% [activator] | –
32 | O=Cc1cc2ccccc2nc1SCc1ccc(Cl)c(Cl)c1 | – | inconclusive [activator, partial curve]
33 | O=C(NCCN1CCN(c2ccccc2)CC1)c1ccc2c(c1)[nH]c(=S)n1c3ccccc3nc21 | – | inconclusive [activator, single point]
34 | Cc1ccc2oc(C(=O)NC3CCS(=O)(=O)C3)cc(=O)c2c1 (centres undefined) | inactive: 1.13% | –
35 | OCCN(Cc1ccccc1)c1ncnc2sccc12 | – | inconclusive [activator, single point]
36 | CC(=O)Nc1ccc(C(=O)COC(=O)c2cc(C)oc2C)c(F)c1 | inactive: -2.73% | –
37 | CCOc1cc(/C=C2/NC(=O)N(Cc3ccccc3F)C2=O)ccc1O | – | inconclusive [activator, partial curve, poor fit]
38 | O=C(CCc1nnc(CCCCc2ccccc2)o1)N1CCCC(O)C1 (centres undefined) | inactive: -3.38% | –
39 | Cc1ccccc1C(=O)N1CCC(C(=O)N2CCN(c3ncccn3)CC2)CC1 | – | inconclusive [activator, single point]
40 | CCOC(=O)N1CCN(S(=O)(=O)c2ccc(C(=O)N(CCCN(C)C)c3nc4ccc(Cl)cc4s3)cc2)CC1 | inactive: 18.6% | –
41 | CCN(CC)C(=O)[C@H]1C[C@H](CC(=O)NC/C=C(\C)CCC=C(C)C)C(=O)N2CCc3c([nH]c4cc(-c5ccco5)ccc34)[C@]12C | – | active: 20.6 µM
42 | COc1ccccc1CCN=C(N)NS(=O)(=O)c1ccccc1F | inactive: 5.62% | –
43 | Cc1ccc(/C=N/Nc2ccnc3cc(Cl)ccc23)c(C)c1 | – | inconclusive [activator, single point]
44 | CSc1cccc(NS(=O)(=O)c2ccc(F)cc2)c1 | – | inconclusive [activator, partial curve, poor fit]
45 | Cc1nn(CC(=O)NC2CCS(=O)(=O)C2)c(C)c1[N+](=O)[O-] (centres undefined) | inactive: -0.83% | –
46 | NC(=O)CSc1nnc(Cc2csc(Nc3ccc(F)cc3)n2)n1Cc1ccccc1 | – | inconclusive [activator, single point]

Row | Structure (SMILES) | activity, positive = re-replication | Potency
47 | CCN(CC)C(=O)CSc1nc2ccccc2c(=O)n1CCC(=O)NCc1ccc(F)cc1 | inactive: 6.03% | –
48 | Oc1ccc(CCNc2c3ccccc3nc3ccccc23)cc1O | – | inconclusive [activator, partial curve, poor fit]
49 | O=C(O)c1cc(N/N=C/c2ccc(OCc3ccccc3)cc2)ccc1Cl | – | inconclusive [activator, single point]
50 | COc1ccc2c(c1)C(C)=CC(C)(C)N2C(=O)CNCc1ccc2c(c1)OCO2 | – | inconclusive [activator, single point]
51 | COc1ccccc1N1CCN(c2nc(C)nc3c2oc2ccccc23)CC1 | – | inconclusive [activator, full curve, poor fit]
52 | O=C(CCN1CCc2ccccc2C1)c1ccc2c(c1)OCCO2 | – | inconclusive [activator, single point]
53 | CN1CCN(S(=O)(=O)c2ccc(N3CCN(C(=O)c4ccccc4)CC3)nc2)CC1 | – | inconclusive [activator, single point]
54 | CCOC(=O)N1CCC(NC(=O)CSCc2nc(-c3cccc(OC)c3)oc2C)CC1 | inactive: 13.6% | –
55 | Nc1nonc1C(=O)NCCNC(=O)c1cccc(Cl)c1 | inactive: -3.9% | –
56 | Cc1cccc([C@@H](NC(=O)OC(C)(C)C)C(=O)OC(C)(C)C)c1 | – | inconclusive [activator, single point]
57 | Cc1cc(CN2CCOCC2)c(O)c(C2(C)CCCCC2)c1 | – | inconclusive [activator, single point]
58 | CCc1ccccc1NC(=O)CN1C(=O)C2CCCN2c2ncc(Cl)cc21 (centres undefined) | – | inconclusive [activator, single point]
59 | CN(C)c1ccc(NC(=S)N2CCN(c3ncc(C(F)(F)F)cc3Cl)CC2)cc1 | – | inconclusive [activator, single point]
60 | S=c1[nH]nc(-c2ccc3ccccc3n2)n1-c1ccccc1Cl | inactive: -2.55% | –
61 | Nc1cc(Nc2ccccc2)ccn1 | inactive: 7.31% | –
62 | COc1ccc(/C=C/c2nc(-c3ccccc3O)n[nH]2)cc1OC | – | inconclusive [activator, single point]
63 | Oc1ccccc1-c1nc(N2CCN(Cc3ccccc3)CC2)c2ccccc2n1 | – | inconclusive [activator, full curve, poor fit]
64 | COC(=O)c1ccc(/C=C2/SC(=S)N(CCCC(=O)Nc3ccc(O)cc3)C2=O)cc1 | – | inconclusive [activator, single point]
65 | Fc1ccc(COc2ccc(Br)cc2CNCc2ccncc2)cc1 | – | inconclusive [activator, single point]
66 | CCOC(=O)C1=CN(Cc2cccc(-c3ccc(F)cc3)c2)S(=O)(=O)N(C)C1C (centres undefined) | – | inconclusive [activator, single point]
67 | Cc1c(C(=O)Oc2cccc3cccnc23)oc2ccccc12 | – | inconclusive [activator, partial curve]
68 | CCOc1cc(C(=O)N/N=C/C2CC=CCC2)cc(OCC)c1OCC (centres undefined) | – | inconclusive [activator, single point]
69 | O=C(Cc1ccccc1)Nc1cccc(-c2nnc(-c3ccco3)o2)c1 | – | inconclusive [activator, partial curve, poor fit]
